Here are results for 56 sequences from the supplement of paper PMC11417369.

The list shows a part of the results.

For the assay, the system named is PfHDP1 homeodomain (GST-tagged). The assay is described as follows: gcPBM binding intensity (ln(normalized median fluorescence intensity)); higher = stronger DNA binding. Put shortly:
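The highest Masliner-normalised natural-log median intensity across replicate spots of either probe orientation is reported as binding intensity. GST-tagged P. falciparum DNA-binding domains expressed in E. coli were applied for 1 h to an Agilent 4 × 180k array of primer-extended double-stranded 36-bp intergenic genomic probes plus negative controls, and bound protein was detected with Alexa488 anti-GST antibody and scanned at 488 nm.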
In the case of “ACATATTTTTACTTTTGTACATATTTTTTAATTTTC [XGTACX_site640]”, the “gcPBM binding intensity (ln)” value came out at 6.85.

On to “TTTATATATTTTTATCTTGATAATAATGTTTTAGAA [TGCATGCA_negctrl_site300]”, for which the “gcPBM binding intensity (ln)” value was 5.87.

For the sequence “GTATATTACATAAAATGTACATAAAAAGCGGAAAAG [XGTACX_site6905]”, the “gcPBM binding intensity (ln)” value was 7.39.

“ATGGGTTAGGCGTGTACACAATTGTATGGTTTAATA [CACACA_site4812]”: the “gcPBM binding intensity (ln)” value came out at 7.12.

With “AATAAGAAAACAAATGCACACCATTTATATAGATTA [CACACA_site8261]”, the “gcPBM binding intensity (ln)” value is 9.71.

As to “TATATTAATTATAAGACACACATATAGTAATAGAAA [CACACA_site2056]”, the “gcPBM binding intensity (ln)” value stood at 6.67.

Consider “TACTATATCATTTATTGTACAATATTTCTTCAGAAA [XGTACX_site1008]”, for which the “gcPBM binding intensity (ln)” value was 6.69.

On to “CTTTGCCTTAAAAAGGAACACACATGCTTTTTTTAG [CACACA_site8219]”, for which the “gcPBM binding intensity (ln)” value worked out at 6.21.

With “TATAAAAGACTAAATATTATAGAAATATAAATATAA [TGCATGCA_negctrl_site237]”, the “gcPBM binding intensity (ln)” value was 6.02.

As to “AATGGGTAAACATACACACACACATCTATATTTATA [CACACA_site7025]”, the “gcPBM binding intensity (ln)” value turned out to be 6.52.

As to “TAACAAGGTTTATATGCATGCAAACATAACCAAAAA [TGCATGCA_site824]”, the “gcPBM binding intensity (ln)” value was 6.58.

Take “GGTTCATAATATGGTTGTACATAAATATATATATAT [XGTACX_site7583]”: the “gcPBM binding intensity (ln)” value turned out to be 8.63.

On to “GGGAGGATAGTTCACAGTACCCAGGAAATCTACGGA [XGTACX_site2553]”, for which the “gcPBM binding intensity (ln)” value turned out to be 6.27.

On to “AAACAGATAAATAAAAGTACACATTAAAAGGTAGCA [XGTACX_site4150]”, for which the “gcPBM binding intensity (ln)” value was 6.47.

With “ATATATATGTATAATCGTACAGTTAACGTATTCTTA [XGTACX_site5649]”, the “gcPBM binding intensity (ln)” value was 6.48.

“TAATTAATTTCTTTACGTACATAATTAATATATATA [XGTACX_site7372]”: the “gcPBM binding intensity (ln)” value turned out to be 6.54.

As for “GGATTTTAATGAACACGTACATAAAATTAAATAAAT [XGTACX_site7023]”, the “gcPBM binding intensity (ln)” value turned out to be 6.25.

As for “ATTACAATAAATTCGTGTACATGATACCGCCGCTAC [XGTACX_site8997]”, the “gcPBM binding intensity (ln)” value came to 6.86.

“ATCAAATTTTTGTTATGTACACAATCATTTAATAAA [XGTACX_site810]”: the “gcPBM binding intensity (ln)” value was determined as 6.19.

“CACAAATAAATATTCACACATATATGTCTTATATAT [CACACA_site5323]”: the “gcPBM binding intensity (ln)” value was 6.36.

As for “AAAAAAAAAAAATAGGTGCGTGTTACTTTTGTATGC [GTGCAC_site9524]”, the “gcPBM binding intensity (ln)” value is 6.73.

Turning to “TAATTATTATTAAATACACACACATACCTCCATGTT [CACACA_site9134]”, the “gcPBM binding intensity (ln)” value was found to be 6.7.

“TTGCATTGATCAAACATACACACATGGTTAATAAAA [CACACA_site2084]”: the “gcPBM binding intensity (ln)” value is 6.8.

For “TATTCTTATATATATACACACACAAAATATCTACAA [CACACA_site8144]”, the “gcPBM binding intensity (ln)” value is 6.94.

“AATAATATACATATATATATTATATTGTAATTTTGT [TGCATGCA_negctrl_site1]”: the “gcPBM binding intensity (ln)” value was 6.22.

Regarding “ACTAGACAAAATATAATGCACACTATTATTTTTATT [CACACA_site2726]”, the “gcPBM binding intensity (ln)” value was 10.6.

As for “TTATATCAAGGGAATGCATGCATATCGTTTTGTATT [TGCATGCA_site327]”, the “gcPBM binding intensity (ln)” value came out at 6.6.

Regarding “TATTTCTCACTGTATGGTACAGATATAAATTTTTAT [XGTACX_site8776]”, the “gcPBM binding intensity (ln)” value came to 6.44.

On to “TATATATATATATATGTGCGCATATATTTTTTTGTA [GTGCAC_site9983]”, for which the “gcPBM binding intensity (ln)” value was found to be 9.33.

“ACAAAATTTACAAAATGTACAAAATATACAAAATAT [XGTACX_site6465]”: the “gcPBM binding intensity (ln)” value was found to be 6.34.

Consider “TTGTGTTATCCTTTTTTAGATCAACTATTTTTATTC [CACACA_negctrl_site145]”, for which the “gcPBM binding intensity (ln)” value amounted to 6.32.

For the sequence “ATAAAGCACACCGACACACACATATTTATATTTATA [CACACA_site6620]”, the “gcPBM binding intensity (ln)” value came out at 6.87.

“TATAAAATAAAAAATAAATATCTATATATATATATA [TGCATGCA_negctrl_site351]”: the “gcPBM binding intensity (ln)” value turned out to be 9.31.

“TAAATACATAGATGTACACACATTACAGATGTACAT [CACACA_site4692]”: the “gcPBM binding intensity (ln)” value is 6.44.

Turning to “ATTTATAAAATTAATGCACACATCAGCATTTATAAA [CACACA_site1025]”, the “gcPBM binding intensity (ln)” value is 10.6.

“ATAAGAAATGTAACTTGTACATAAGGATATATATTT [XGTACX_site236]”: the “gcPBM binding intensity (ln)” value came out at 6.48.

With “TAATAATAAAAAAATAGTACATAAATAAAAATAATA [XGTACX_site4774]”, the “gcPBM binding intensity (ln)” value was 6.66.

For the sequence “CATTTATATAAATACACACACACAAAAAAAAAAAAA [CACACA_site5459]”, the “gcPBM binding intensity (ln)” value was found to be 6.42.

For the sequence “TTTATACATTTATATTGTACTAATTCGATTTTATAT [XGTACX_site5424]”, the “gcPBM binding intensity (ln)” value was 6.52.

In the case of “AAAGAAAAAGAAAAAGAAAAATTAGAATATAAAATA [CACACA_negctrl_site792]”, the “gcPBM binding intensity (ln)” value came to 5.93.

Turning to “AATGATCATATATACACACACACAAAAAAAAAAAAA [CACACA_site4009]”, the “gcPBM binding intensity (ln)” value is 6.52.

Turning to “ATAATTTGTAAAAGGAGTACAAAACCATACTTTTTT [XGTACX_site6076]”, the “gcPBM binding intensity (ln)” value is 5.93.

Turning to “AAAGGAAAATTAAAAAGTACACATTTGAAAAAAAAA [XGTACX_site2724]”, the “gcPBM binding intensity (ln)” value is 6.37.

“ATGTATTTAATAAGAACACACATATATTTAATTTAA [CACACA_site5606]”: the “gcPBM binding intensity (ln)” value came out at 6.11.

Consider “TTTTTTTTTTTAAGTTCACACATAAATTCGATTTAC [CACACA_site5057]”, for which the “gcPBM binding intensity (ln)” value was determined as 6.35.

As to “ACCGTTTTTGTGTAATGTACAAAATTTCTGACAGTG [XGTACX_site4999]”, the “gcPBM binding intensity (ln)” value was 6.79.

On to “TATAAGTTTATATATACACACATATATATATATATA [CACACA_site3274]”, for which the “gcPBM binding intensity (ln)” value is 9.3.

As to “TTGTTAAAATTATTAAGTTAAATATCGATTTGTAAA [XGTACX_negctrl_site429]”, the “gcPBM binding intensity (ln)” value is 6.02.

“ATATTTATAACTTGTACACACAAATATGCATATATA [CACACA_site7583]”: the “gcPBM binding intensity (ln)” value stood at 7.12.

Turning to “TTAAAATTTTTTTTTTTTTTTTTTTTTTTTTTTTTC [CACACA_negctrl_site957]”, the “gcPBM binding intensity (ln)” value amounted to 5.85.

For the sequence “TTATTATTCCCTCATTTTGTTACCATTATTTCAATT [CACACA_negctrl_site1023]”, the “gcPBM binding intensity (ln)” value was 6.85.

On to “ATATATCATAATAAAAGTACTTATATATTTTATATA [XGTACX_site560]”, for which the “gcPBM binding intensity (ln)” value turned out to be 6.19.

Turning to “AAAATAAATAAATATACACACCATATATATATTTTT [CACACA_site5573]”, the “gcPBM binding intensity (ln)” value came to 6.44.

Consider “AAAAAAAAAAAAAACACACACACAAATACAAATACA [CACACA_site414]”, for which the “gcPBM binding intensity (ln)” value turned out to be 6.62.

Consider “ATAAATAATTGTAGTTGTACATGATATTTTTATTAC [XGTACX_site550]”, for which the “gcPBM binding intensity (ln)” value was found to be 6.27.

As for “TACAAAAAAAGATGATGTACAATGAAAAATAAGAAA [XGTACX_site5840]”, the “gcPBM binding intensity (ln)” value stood at 7.13.
